Experimental findings from patent publication US20260248922A1, “TREATMENT OF SIGNS, SYMPTOMS AND/OR COMPLICATIONS OF VIRAL, BACTERIAL, PROTOZOAL, AND/OR FUNGAL INFECTIONS BY HIGH PENETRATION PRODRUGS” (priority 2022, published 2026) are described below.

Read-outs that look alike come from different tables or passages of the source.

Experiment [1] deals with H1N1 virus. The experiment can be described thus: H1N1 virus infection mouse model (Example 67). In kind it is in vivo, mice. The following applies: for Animals died/total / Animals with lung lesion/total: transdermal once a day; for protection from death, lung damages and clinical signs of illness (conclusion in words): transdermal, low, middle and high doses. Here is the method: A total of seventy mice (7 groups, 10/group) were used in this study. At day 0, mice were anesthetized with isoflurane and held in a dorsal recumbent position for administration of 0.1×TCID50/mouse virus (new batch) by internasal instillation, from day 2 post challenge, mice were received a single dose of different concentrations of test article or vehicle control once a day up to 15th day with dose initiation on day 2 post challenge. Group 1 served as an infected control group and was treated with vehicle (35% ethanol). 7% of (pyrrolidin-2-yl)methyl 2-[(2,3-dimethylphenyl)amino]benzoate hydrochloride in 35% ethanol (low dose: 25.0 mg/kg, group 2, mid dose: 50.1 mg/kg, group 3, and high dose: 100.1 mg/kg, group 4) and 7% of (pyrrolidin-2-yl)methyl α-methyl-4-(2-thienylcarbonyl)benzeneacetate hydrochloride in 35% ethanol (low dose: 24.9 mg/kg, group 5, mid dose: 49.8 mg/kg, group 6, and high dose: 99.6 mg/kg, group 7) and vehicle (35% ethanol) were given by transdermal on the back of animal in an area of 2 cm×5 cm, 1.5 cm×3.5 cm, or 1 cm×2.5 cm for high, middle or low dose. Mice were observed following viral challenge for clinical signs of illness including body weights, health score, morbidity and mortality.
Lung lesions and peribronchiolitis of all deceased and surviving animals were characterized (Table 11).

In experiment [2] the test system is H1N1 virus. The experiment can be described thus: H1N1 virus infection mouse model (Example 68). As to conditions: for Animals died/total / Animals with lung lesion/total: transdermal once a day; for protection from death, lung damages and clinical signs of illness (conclusion in words): transdermal, low, middle and high doses. In kind it is in vivo, mice. On the procedure: A total of seventy mice (7 groups, 10/group) were used in this study. At day 0, mice were anesthetized with isoflurane and held in a dorsal recumbent position for administration of 0.1×TCID50/mouse virus (new batch) by internasal instillation, from day 2 post challenge, mice were received a single dose of different concentrations of test article or vehicle control once a day up to 15th day with dose initiation on day 2 post challenge. Group 1 served as an infected control group and was treated with vehicle (35% ethanol). 7% (pyrrolidin-2-yl)methyl 5-(2,4-difluorophenyl) salicylate hydrochloride in 35% ethanol (low dose: 25.0 mg/kg, group 2, mid dose: 49.9 mg/kg, group 3, and high dose: 99.8 mg/kg, group 4) and 7% (pyrrolidin-2-yl)methyl 5-(2,4-difluorophenyl) acetylsalicylate hydrochloride in 35% ethanol (low dose: 24.7 mg/kg, group 5, mid dose: 49.4 mg/kg, group 6, and high dose: 98.7 mg/kg, group 7) and vehicle (35% ethanol) were given by transdermal on the back of animal in an area of 2 cm×5 cm, 1.5 cm×3.5 cm, or 1 cm×2.5 cm for high, middle or low dose. Mice were observed following viral challenge for clinical signs of illness including body weights, health score, morbidity and mortality.
Lung lesions and peribronchiolitis of all deceased and surviving animals were characterized (Table 13).

For experiment [3], the system named is cecal slurry-induced sepsis. The experiment can be described thus: Cecal slurry-induced sepsis mouse model (Example 74). In kind it is in vivo, C57/BL6 mice. As to conditions: for Animals died/total / survival: transdermal once a day.
For experiment [4], the system named is Methicillin-resistant S. aureus strain NRS71 (Sangar 252). In kind it is in vivo, C57/BL6 mice. The following applies: for Animals died/total / survival: transdermal once a day.
The subject of experiment [5] is H1N1 virus. Kind of experiment: H1N1 virus infection mouse model (Example 66). As to conditions: for Animals died/total / Animals with lung lesion/total: transdermal once a day; for protection from death, lung damages and clinical signs of illness (conclusion in words): transdermal, low, middle and high dose. In kind it is in vivo, mice. Here is the method: A total of seventy mice (7 groups, 10/group) were used in this study. At day 0, mice were anesthetized with isoflurane and held in a dorsal recumbent position for administration of 0.1×TCID50/mouse virus (new batch) by internasal instillation, from day 2 post challenge, mice were received a single dose of different concentrations of test article or vehicle control once a day up to 15th day with dose initiation on day 2 post challenge. Group 1 served as an infected control group and was treated with vehicle (35% ethanol). […] Mice were observed following viral challenge for clinical signs of illness including body weights, health score, morbidity and mortality.
Lung lesions and peribronchiolitis of all deceased and surviving animals were characterized (Table 9).

For the compound `CC(C(=O)OCC1CCCN1)c1ccc(C(=O)c2cccs2)cc1.Cl` (stereo not drawn) [Example 33, (pyrrolidin-2-yl)methyl α-methyl-4-(2-thienylcarbonyl)benzeneacetate hydrochloride], the Animals died/total is reported as 4/10 with H1N1 virus [1] (group 5, low dose 24.9 mg/kg); 5/10 with H1N1 virus [1] (group 6, mid dose 49.8 mg/kg); 6/10 in the experiment with H1N1 virus [1] (group 7, high dose 99.6 mg/kg). The “Animals with lung lesion/total” value in the experiment on H1N1 virus [1] (group 5, low dose 24.9 mg/kg) is given as 3/10; in the experiment on H1N1 virus [1] (group 6, mid dose 49.8 mg/kg), 3/10; in the experiment on H1N1 virus [1] (group 7, high dose 99.6 mg/kg), 3/10. Further, the “protection from death, lung damages and clinical signs of illness (conclusion in words)” value in the experiment with H1N1 virus [1] was “protected mice from death and lung damages, delayed and reduced the severity of clinical signs of illness”.
With `Cl.O=C(OCC1CCCN1)c1cc(-c2ccc(F)cc2F)ccc1O` (centres unmarked) [Example 27, (pyrrolidin-2-yl)methyl 5-(2,4-difluorophenyl) salicylate hydrochloride], the Animals died/total is reported as 7/10 with H1N1 virus [2] (group 2, low dose 25.0 mg/kg); 5/10 with H1N1 virus [2] (group 3, mid dose 49.9 mg/kg); 4/10 in the experiment on H1N1 virus [2] (group 4, high dose 99.8 mg/kg). Further, the “Animals with lung lesion/total” value in the experiment on H1N1 virus [2] (group 2, low dose 25.0 mg/kg) is given as 7/10; with H1N1 virus [2] (group 3, mid dose 49.9 mg/kg), 5/10; in the experiment with H1N1 virus [2] (group 4, high dose 99.8 mg/kg) it was 4/10. The “protection from death, lung damages and clinical signs of illness (conclusion in words)” value in the experiment with H1N1 virus [2] is “protected mice from death and lung damages, delayed and reduced the severity of clinical signs of illness”.
`CC(=O)Oc1ccc(-c2ccc(F)cc2F)cc1C(=O)OCC1CCCN1.Cl` (centres unmarked) [Example 28, (pyrrolidin-2-yl)methyl 5-(2,4-difluorophenyl) acetylsalicylate hydrochloride]: the Animals died/total was 6/10 in the experiment on H1N1 virus [2] (group 5, low dose 24.7 mg/kg); 4/10 with H1N1 virus [2] (group 6, mid dose 49.4 mg/kg); 3/10 in the experiment on H1N1 virus [2] (group 7, high dose 98.7 mg/kg). In addition, the “Animals with lung lesion/total” value in the experiment on H1N1 virus [2] (group 5, low dose 24.7 mg/kg) is recorded as 4/10; in the experiment on H1N1 virus [2] (group 6, mid dose 49.4 mg/kg), 2/10; with H1N1 virus [2] (group 7, high dose 98.7 mg/kg), 1/10. In addition, the “protection from death, lung damages and clinical signs of illness (conclusion in words)” value in the experiment with H1N1 virus [2] was “protected mice from death and lung damages, delayed and reduced the severity of clinical signs of illness”.
As for `CCN(CC)CCOC(=O)c1ccccc1OC(C)=O.Cl` [Example 4], the Animals died/total in experiment [3] (group 2, low dose 25.2 mg/kg) is recorded as 6/10; in experiment [3] (group 3, mid dose 50.4 mg/kg), 4/10; in experiment [3] (group 4, high dose 100.8 mg/kg) it was 2/10; in experiment [4] (group 2, low dose 25.2 mg/kg) it was 8/10; in experiment [4] (group 3, mid dose 50.4 mg/kg), 7/10; in experiment [4] (group 4, high dose 100.8 mg/kg), 5/10. In addition, the survival in experiment [3] (group 2, low dose 25.2 mg/kg) is 40%; in experiment [3] (group 3, mid dose 50.4 mg/kg) it was 60%; in experiment [3] (group 4, high dose 100.8 mg/kg) it was 80%; in experiment [4] (group 2, low dose 25.2 mg/kg) it was 20%; in experiment [4] (group 3, mid dose 50.4 mg/kg), 30%; in experiment [4] (group 4, high dose 100.8 mg/kg), 50%. The “protection from death and clinical signs of illness (conclusion in words)” value was “protected mice from death and delayed and reduced the severity of clinical signs of illness” in experiment [3] (transdermal, low, middle and high doses); “protected mice from death and delayed and reduced the severity of clinical signs of illness” in experiment [4] (transdermal, low, middle and high dose).
As to `Cc1cccc(Nc2ccccc2C(=O)OCC2CCCN2)c1C.Cl` (centres unmarked) [Example 17, (pyrrolidin-2-yl)methyl 2-[(2,3-dimethylphenyl)amino]benzoate hydrochloride], the Animals died/total in the experiment on H1N1 virus [1] (group 2, low dose 25.0 mg/kg) is given as 7/10; in the experiment on H1N1 virus [1] (group 3, mid dose 50.1 mg/kg) it was 5/10; in the experiment with H1N1 virus [1] (group 4, high dose 100.1 mg/kg), 5/10. Further, the “Animals with lung lesion/total” value in the experiment with H1N1 virus [1] (group 2, low dose 25.0 mg/kg) was 7/10; in the experiment with H1N1 virus [1] (group 3, mid dose 50.1 mg/kg) it was 5/10; in the experiment on H1N1 virus [1] (group 4, high dose 100.1 mg/kg), 4/10. The “protection from death, lung damages and clinical signs of illness (conclusion in words)” value in the experiment on H1N1 virus [1] is “protected mice from death and lung damages, delayed and reduced the severity of clinical signs of illness”.
Turning to `CC(=O)O.CCN(CC)CCOC(=O)CC1=C(C)/C(=C/c2ccc([S+](C)[O-])cc2)c2ccc(F)cc21` (centres unmarked) [Example 8], the Animals died/total with H1N1 virus [5] (group 5, low dose 25.5 mg/kg) is given as 4/10; in the experiment with H1N1 virus [5] (group 6, mid dose 50.9 mg/kg), 3/10; with H1N1 virus [5] (group 7, high dose 101.9 mg/kg), 5/10. Moreover, the “Animals with lung lesion/total” value is 2/10 with H1N1 virus [5] (group 5, low dose 25.5 mg/kg); 2/10 with H1N1 virus [5] (group 6, mid dose 50.9 mg/kg); 3/10 in the experiment on H1N1 virus [5] (group 7, high dose 101.9 mg/kg). Besides, the “protection from death, lung damages and clinical signs of illness (conclusion in words)” value in the experiment on H1N1 virus [5] was “protected mice from death and lung damages, delayed and reduced the severity of clinical signs of illness”.
Regarding `CC(C(=O)OCC1CCCN1)c1ccc(-c2ccccc2)c(F)c1.Cl` (centres unmarked) [Example 15, (pyrrolidin-2-yl)methyl 2-(2-fluorobiphenyl-4-yl) propanoate hydrochloride], the Animals died/total is reported as 6/10 in the experiment on H1N1 virus [5] (group 2, low dose 25.0 mg/kg); 5/10 with H1N1 virus [5] (group 3, mid dose 50.0 mg/kg); 4/10 in the experiment on H1N1 virus [5] (group 4, high dose 100.0 mg/kg). Besides, the “Animals with lung lesion/total” value is 7/10 in the experiment with H1N1 virus [5] (group 2, low dose 25.0 mg/kg); 5/10 in the experiment on H1N1 virus [5] (group 3, mid dose 50.0 mg/kg); 4/10 with H1N1 virus [5] (group 4, high dose 100.0 mg/kg). Further, the “protection from death, lung damages and clinical signs of illness (conclusion in words)” value in the experiment with H1N1 virus [5] was “protected mice from death and lung damages, delayed and reduced the severity of clinical signs of illness”.
